Experimental data: the supplement of paper PMC12217912
This is one part of the list. The full chains were built here from the parent and the listed change. Values near 0.05 are background.

B1: TEV protease; numbered along this chain (parent)
chain: MGESLFKGPRDYNPISSSICHLTNESDGHTTSLYGIGFGPFIITNKHLFRRNNGTLVVQSLHGVFKVKDTTTLQQHLVDGRDMIIIRMPKDFPPFPQKLKFREPQREERICLVTTNFQTKSMSSMVSDTSCTFPSGDGIFWKHWIQTKDGQCGSPLVSTRDGFIVGIHSASNFTNTNNYFTSVPKNFMELLTNQEAQQWVSGWRLNADSVLWGGHKVFMVKPEEPFQPVKEATQL

Variants of: B1
Test: raw area under fraction-flipped curve 0-4 h after induction (AUC4h, not background-subtracted), DNA-recorder readout of cleavage of the substrate (dimensionless); higher = more cleavage of the substrate by the protease variant
Conditions: temperature: 34 °C; time window: 0-4 h after rhamnose induction
Procedure: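 In vivo DNA recorder in E. coli TOP10(DE3) ΔrhaA at 34 °C. Each TEVp single-site mutant (parent TEVp 0) is paired with a single-site variant of the 7-mer TEVs (canonical ENLYFQ|S). The substrate sits between flexible linkers in a Bxb1-sfGFP-TEVs-SsrA fusion, so cleavage stabilises Bxb1 and speeds flipping of a recombination array, read by NGS. The value is the raw area under the fraction-flipped curve over 0-4 h after rhamnose induction (AUC4h), with ≥20 reads per time point. It is not background-subtracted; inactive controls average about 0.047.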
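Further: Bxb1 expression induced with 0.2% (w/v) L-rhamnose at OD600 near 0.5, cultures sampled hourly, flipped fraction per protease–substrate barcode pair counted by paired-end Illumina sequencing.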

| Variant | area with substrate ENLAFQS | area with substrate ENLCFQS | area with substrate ENLDFQS | area with substrate ENLEFQS | area with substrate ENLFFQS | area with substrate ENLIFQS | area with substrate ENLKFQS | area with substrate ENLLFQS | area with substrate ENLNFQS | area with substrate ENLPFQS | area with substrate ENLSFQS | area with substrate ENLTFQS | area with substrate ENLGFQS | area with substrate ENLMFQS | area with substrate ENLVFQS | area with substrate ENLWFQS | area with substrate ENLHFQS | area with substrate ENLRFQS | area with substrate ENLQFQS |
| --- | --- | --- | --- | --- | --- | --- | --- | --- | --- | --- | --- | --- | --- | --- | --- | --- | --- | --- | --- |
| MGEVLFKGPRDYNPISSSICHLTNESDGHTTSLYGIGFGPFIITNKHLFRRNNGTLVVQSLHGVFKVKDTTTLQQHLVDGRDMIIIRMPKDFPPFPQKLKFREPQREERICLVTTNFQTKSMSSMVSDTSCTFPSGDGIFWKHWIQTKDGQCGSPLVSTRDGFIVGIHSASNFTNTNNYFTSVPKNFMELLTNQEAQQWVSGWRLNADSVLWGGHKVFMVKPEEPFQPVKEATQL [S4V] | 0.0715 | 0.0882 | 0.0671 | 0.0741 | 0.0824 | 0.104 | 0.0912 | 0.0767 | 0.0585 | 0.0539 | 0.0659 | 0.0813 | – | – | – | – | – | – | – |
| MGEKLFKGPRDYNPISSSICHLTNESDGHTTSLYGIGFGPFIITNKHLFRRNNGTLVVQSLHGVFKVKDTTTLQQHLVDGRDMIIIRMPKDFPPFPQKLKFREPQREERICLVTTNFQTKSMSSMVSDTSCTFPSGDGIFWKHWIQTKDGQCGSPLVSTRDGFIVGIHSASNFTNTNNYFTSVPKNFMELLTNQEAQQWVSGWRLNADSVLWGGHKVFMVKPEEPFQPVKEATQL [S4K] | 0.0664 | 0.127 | 0.0662 | – | 0.0926 | 0.076 | 0.0726 | – | 0.0462 | 0.0621 | 0.0436 | – | 0.075 | 0.0941 | 0.0954 | 0.074 | – | – | – |
| MGEPLFKGPRDYNPISSSICHLTNESDGHTTSLYGIGFGPFIITNKHLFRRNNGTLVVQSLHGVFKVKDTTTLQQHLVDGRDMIIIRMPKDFPPFPQKLKFREPQREERICLVTTNFQTKSMSSMVSDTSCTFPSGDGIFWKHWIQTKDGQCGSPLVSTRDGFIVGIHSASNFTNTNNYFTSVPKNFMELLTNQEAQQWVSGWRLNADSVLWGGHKVFMVKPEEPFQPVKEATQL [S4P] | 0.0477 | – | 0.0661 | 0.0577 | 0.0989 | 0.0758 | 0.0765 | – | 0.0515 | 0.0635 | 0.0615 | – | – | – | – | 0.0592 | 0.0744 | 0.0912 | – |
| MGGSLFKGPRDYNPISSSICHLTNESDGHTTSLYGIGFGPFIITNKHLFRRNNGTLVVQSLHGVFKVKDTTTLQQHLVDGRDMIIIRMPKDFPPFPQKLKFREPQREERICLVTTNFQTKSMSSMVSDTSCTFPSGDGIFWKHWIQTKDGQCGSPLVSTRDGFIVGIHSASNFTNTNNYFTSVPKNFMELLTNQEAQQWVSGWRLNADSVLWGGHKVFMVKPEEPFQPVKEATQL [E3G] | 0.0623 | 0.0612 | 0.0603 | 0.0685 | 0.0753 | 0.0579 | 0.0657 | – | 0.0696 | 0.0382 | 0.0647 | 0.0819 | 0.0668 | – | 0.0775 | 0.0681 | 0.0615 | 0.0749 | – |
| MQESLFKGPRDYNPISSSICHLTNESDGHTTSLYGIGFGPFIITNKHLFRRNNGTLVVQSLHGVFKVKDTTTLQQHLVDGRDMIIIRMPKDFPPFPQKLKFREPQREERICLVTTNFQTKSMSSMVSDTSCTFPSGDGIFWKHWIQTKDGQCGSPLVSTRDGFIVGIHSASNFTNTNNYFTSVPKNFMELLTNQEAQQWVSGWRLNADSVLWGGHKVFMVKPEEPFQPVKEATQL [G2Q] | 0.0731 | 0.0682 | 0.0673 | 0.0616 | 0.0825 | 0.0955 | – | – | 0.0497 | 0.0649 | 0.0571 | 0.0645 | 0.0534 | – | – | 0.0558 | 0.0741 | 0.0736 | 0.0808 |
| MGESLFKGARDYNPISSSICHLTNESDGHTTSLYGIGFGPFIITNKHLFRRNNGTLVVQSLHGVFKVKDTTTLQQHLVDGRDMIIIRMPKDFPPFPQKLKFREPQREERICLVTTNFQTKSMSSMVSDTSCTFPSGDGIFWKHWIQTKDGQCGSPLVSTRDGFIVGIHSASNFTNTNNYFTSVPKNFMELLTNQEAQQWVSGWRLNADSVLWGGHKVFMVKPEEPFQPVKEATQL [P9A] | 0.0608 | 0.0633 | 0.0637 | 0.0824 | – | 0.0854 | 0.0654 | 0.0704 | 0.0611 | 0.0621 | – | 0.0886 | – | 0.0696 | 0.0906 | – | 0.0611 | 0.0679 | – |
| MGESLFKGPIDYNPISSSICHLTNESDGHTTSLYGIGFGPFIITNKHLFRRNNGTLVVQSLHGVFKVKDTTTLQQHLVDGRDMIIIRMPKDFPPFPQKLKFREPQREERICLVTTNFQTKSMSSMVSDTSCTFPSGDGIFWKHWIQTKDGQCGSPLVSTRDGFIVGIHSASNFTNTNNYFTSVPKNFMELLTNQEAQQWVSGWRLNADSVLWGGHKVFMVKPEEPFQPVKEATQL [R10I] | 0.0474 | 0.0723 | – | – | 0.0922 | 0.0768 | – | – | 0.0686 | 0.0581 | – | – | – | – | – | – | – | 0.0704 | – |
| MGESLFKGPLDYNPISSSICHLTNESDGHTTSLYGIGFGPFIITNKHLFRRNNGTLVVQSLHGVFKVKDTTTLQQHLVDGRDMIIIRMPKDFPPFPQKLKFREPQREERICLVTTNFQTKSMSSMVSDTSCTFPSGDGIFWKHWIQTKDGQCGSPLVSTRDGFIVGIHSASNFTNTNNYFTSVPKNFMELLTNQEAQQWVSGWRLNADSVLWGGHKVFMVKPEEPFQPVKEATQL [R10L] | 0.0627 | 0.0867 | 0.0676 | – | – | – | 0.075 | 0.0914 | 0.0634 | 0.0522 | – | – | – | – | – | – | 0.0716 | – | 0.03 |
| MGESQFKGPRDYNPISSSICHLTNESDGHTTSLYGIGFGPFIITNKHLFRRNNGTLVVQSLHGVFKVKDTTTLQQHLVDGRDMIIIRMPKDFPPFPQKLKFREPQREERICLVTTNFQTKSMSSMVSDTSCTFPSGDGIFWKHWIQTKDGQCGSPLVSTRDGFIVGIHSASNFTNTNNYFTSVPKNFMELLTNQEAQQWVSGWRLNADSVLWGGHKVFMVKPEEPFQPVKEATQL [L5Q] | 0.0627 | 0.0822 | 0.066 | 0.0518 | 0.102 | 0.0943 | 0.086 | – | – | – | 0.0745 | – | – | – | 0.115 | 0.0704 | 0.065 | 0.0704 | 0.0476 |
